Data from paper PMC12136788.
The other results are listed elsewhere or left out.

B1: chr7:13615833:13615834:+_ENSMUSG00000005566_ENSMUST00000005705|mus_mus|FALSE|FALSE (ssRNA)
RNA: GGGAGUUCUACAGUCCGACGAUCCUUGUUGAACUGUUUGAACAUGCGGCCCACAUCUUGAGCAAACUCCUGGGGGGAGCUAUAAGGAGGUGACAGCUUCUCUUGGAGGCGAGCACGAAUCAAGGUCAGGUCUAGGGUACCACCCAACAGAGGAUUGAGCAUCA
B2: 146275045_146276268_750_CDS_ENSMUSG00000037110_ENSMUST00000109986|mouse|control|control (ssRNA)
RNA: GGGAGUUCUACAGUCCGACGAUCAUCUUGAUUCUCUUUAUUCUUCCACUCCAAGCUUGCAGCCUGAAUAACCAUGUAUUUCAACAGUAUUUGAAGAAAAAAGCAGGUUUGGUCCUCAGCAAUCUUCUCCCCUGAUAUGGCUGGCAACAGAGGAUUGAGCAUCA
B3: chr7:29966231:29966232:-_ENSG00000136193_ENST00000242059|hu_hu|FALSE|FALSE (ssRNA)
RNA: GGGAGUUCUACAGUCCGACGAUCCCCAAAACAGGGAGACUGUGUUUUGGGGACAAGUUUUACGUCAUCAACAAAGAUGAAAGGCUUGAAUAUGGACCUGGAAGGAUCAGGGGUUCCAGUGAAGUAGUGAAUGCACGGAGAGCUCAACAGAGGAUUGAGCAUCA
B4: chr10:5892124:5892125:-_ENSMUSG00000061759_ENSMUST00000095893|mus_mus|motif|central (ssRNA)
RNA: GGGAGUUCUACAGUCCGACGAUCUUCAUUAAAACUACUUGAAAGUUUUGCAUUUAACUUAGAAUAGUGACAGAAGUAUAACGGGCUUAAACCCAAACCAAUGCAGCGGGGCAAACCAUUCCAAGGAAGCCUCGUCUACUGUACCAACAGAGGAUUGAGCAUCA
B5: 33921043_33925325_607_CDS_ENSG00000006125_ENST00000262325|human|control|control (ssRNA)
RNA: GGGAGUUCUACAGUCCGACGAUCAAUCACUUUCUUCACAGCCUCCUUUCUCUUUUCUUUCUUUUCAUUGUUGAGUUCAGCUUUUAGUUCAAAUAUUUCUCCUUUUUUAUUGGUUGUGAAAUACUUGGAGUCAGUCAUGACUUUCAACAGAGGAUUGAGCAUCA
B6: chr2:179515052:179515053:+_ENSMUSG00000000305_ENSMUST00000000314|mus_hu|mus_mus_mus_hu_False|98_98 (ssRNA)
RNA: GGGAGUUCUACAGUCCGACGAUCGCUGUCCCAUGCAGUGACGGUAAACGCCACCUGCUCGGAGGGGACCUGCAGCUCCCGGGUGGCGAAGACUGUCCCAUCUGCCCCAACUUUGAAGUCCAUGCUGUUGGUCUCAUAUUGUGUCAACAGAGGAUUGAGCAUCA

Target: T1, UNK ZnF1-3 (human, UniProt Q9C0B0 31-174)
T1 sequence: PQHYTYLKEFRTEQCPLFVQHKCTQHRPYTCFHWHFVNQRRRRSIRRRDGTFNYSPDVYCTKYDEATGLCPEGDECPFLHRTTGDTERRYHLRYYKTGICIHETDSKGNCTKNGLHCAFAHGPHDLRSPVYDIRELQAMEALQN
Assay: nsRBNS (natural sequence RNA bind-n-seq); RBNS binding buffer (assumed for nsRBNS): 25 mM Tris pH 7.5, 150 mM KCl, 3 mM MgCl2, 0.01% Triton X-100, 500 ug/ml BSA, 20 U/ml SUPERase-In, 4 C; UNK is unkempt and MSI1 is Musashi-1; names of the RNAs are library labels; protein concentration not given here; high values mean tight binding

Binder	binding signal [enrichment R]
B1	2.23
B2	0.921
B3	1.69
B4	0.761
B5	0.244
B6	0.731
